Several values for one entry are separate records, joined by “and”; a condition that tells them apart may be missing. Equal entries are not always repeated. The inconclusive results got no clear call from the source; some entries with a clear call stand among them for comparison. Potencies of inconclusive entries are left out as doubtful fits. Activity calls are given as the source filed them. Calls follow the shape of the dose curve; as a rule, active = well fitted cell-killing curve with a large enough effect; inconclusive = small, poorly fitted or top-dose-only effect, or effect the other way; inactive = no such curve, though single readings can be large or run the other way.
Experiment: Viability qHTS for spleen associated tyrosine kinase inhibitor (SYKi) drug resistant MV4-11 cells (AID 1963824); also: nearly all actives have a fitted effect of over 35% in size
Details: SYKi-resistant MV4-11 viability, CellTiter-Glo, 72 h; series mostly up to 45 µM
Summary of the method: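 SYK-inhibitor-resistant MV4-11 AML cells were seeded at 500 per well onto compound and cultured 72 hours (37 °C, 5% CO2). CellTiter-Glo was then added, and after 10 min at room temperature, luminescence gave viability.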
Potency is read from the fitted curve at half-maximal effect; tags tell the direction and shape of the fitted curve.

Row | SMILES | Potency | viability, % of control
1 | CC(=O)O[C@H]1CC2C(COC(=O)CC(C)C)=CO[C@@H](OC(=O)CC(C)C)C2[C@]12CO2 (stereo not given in full) | inconclusive [cytotoxic, full curve, poor fit] | 
2 | CNc1cccc(CCOc2ccc3c(c2)CN(CC(F)(F)F)C(=O)[C@H](CC(=O)O)C3)n1 | inactive | 
3 | C/C(=C/CO)CC[C@@H]1[C@@]2(C)CCC[C@](C)(C(=O)O)C2CC[C@@]1(C)O (stereo not given in full) | inactive | 
4 | O=C(O)CCCCC(=O)O | inactive | 
5 | C[C@H]1[C@H]2CC[C@H]3[C@@H]4CC=C5C[C@@H](N(C)C)CC[C@]5(C)[C@H]4CC[C@]23CN1C | inactive | 
6 | COc1ccccc1OCC(O)CO (stereo not given) | inactive | 
7 | COC(=O)Cn1nc(-c2cccc(OC)c2)c2ccccc21 | inconclusive [cytotoxic, single point] | 
8 | O=C(Nc1ncc(SCCN2CCCC2)s1)C1(c2ccc(S(=O)(=O)C3CC3)cc2)CC1C1CCCCC1 (stereo not given) | active: 8.2 µM | 
9 | NS(=O)(=O)c1cc2c(cc1C(F)(F)F)NCNS2(=O)=O | inactive | 
10 | C=CC(=O)Nc1cccc(Nc2nc(Nc3ccc(NC4CN(CCF)C4)cc3OC)ncc2C(F)(F)F)c1 | active: 1.3 µM and active: 1.48 µM | 
11 | COc1cncc(C#Cc2ccccn2)c1 | inactive | 
12 | COC1CC(=O)C23C(=O)NC(Cc4c[nH]c5ccccc45)C2C(C)C2(C)OC2C3/C=C/CC(C)CC1O (stereo not given) | active: 4.47 µM | 
13 | C/C=C/C(O)C1OC(=O)CC1Nc1ccc(C(=O)O)cc1 (stereo not given) | inactive | 
14 | CC(C)=CCC[C@](C)(O)[C@H]1CC[C@]2(C)[C@@H]1[C@H](O)CC1[C@@]3(C)CC[C@H](O)C(C)(C)C3[C@@H](O[C@@H]3O[C@H](CO)[C@@H](O)[C@H](O)[C@H]3O[C@@H]3OC[C@@H](O)[C@H](O)[C@H]3O)C[C@]12C (stereo not given in full) | inactive | 
15 | CN(Cc1nccs1)c1ncnc2ccc(-c3ccc4c(c3)OCO4)cc12 | inconclusive [cytotoxic, partial curve] | 
16 | NC(=O)c1ncn(C2O[C@H](CO)[C@@H](O)[C@H]2O)c1N (stereo not given in full) | inconclusive [cytotoxic, single point] | 
17 | CCCNC(C)C(=O)Nc1ccccc1C (stereo not given) | inactive | 
18 | CC1CCC2(C(=O)OC3OC(COC4OC(CO)C(O)C(O)C4O)C(O)C(O)C3O)CCC3(C)C(=CCC4C5(C)CCC(O)C(C)(C(=O)O)C5CCC43C)C2C1(C)O (stereo not given) |  | inactive: 98.8% [at 9.25 µM]
19 | CC[C@]1(O)CC2CN(CCc3c([nH]c4ccccc34)[C@@](C(=O)OC)(c3cc4c(cc3OC)N(C=O)[C@H]3[C@@](O)(C(=O)OC)[C@H](OC(C)=O)[C@]5(CC)C=CCN6CC[C@]43[C@@H]65)C2)C1 (stereo not given in full) | active: 0.0508 µM | 
20 | O=S(=O)(c1ccccc1)c1cnc2c(N3CCNCC3)cccc2c1 | inconclusive [cytotoxic, single point] | 

Row | SMILES | Potency | viability, % of control
21 | CC1CN(c2cc3c(cc2F)c(=O)c(C(=O)O)cn3-c2ccc(F)cc2F)CCN1 (stereo not given) | inconclusive [rising, full curve] | 
22 | CC(C)=CCC/C(C)=C/CC/C(C)=C/C(=O)OCC(=O)[C@@]1(O)CC[C@H]2[C@@H]3CCC4=CC(=O)C=C[C@]4(C)[C@H]3[C@@H](O)C[C@@]21C | active: 9.44 µM | 
23 | CC1C(=O)OCC2=CC[N+]3([O-])CCC(OC(=O)C(C)(O)C1(C)O)C23 (stereo not given) | inactive | 
24 | CC(O)C1NC(=O)C2CCCN2C1=O (stereo not given) | inactive | 
25 | C=C1CCC2C(C)(C)C(O)CCC2(C)C1CCC(C)CCO (stereo not given) | active: 12.8 µM | 
26 | Nc1ccc(C(=O)O)cc1 | inactive | 
27 | O=C(O)CC(CCc1ccccc1)OC1OC(CO)C(O)C(O)C1O (stereo not given) | inactive | 
28 | COc1cccc(C(=O)NCCNc2nc3cc(C)cc(C)c3cc2C#N)c1 | inactive | 
29 | COc1cc([C@H]2OC[C@]3(OC(C)=O)[C@@H](c4ccc(O[C@@H]5O[C@H](CO)[C@@H](O)[C@H](O)[C@H]5O)c(OC)c4)OC[C@H]23)ccc1O | inactive | 
30 | CC(=O)O[C@@H]1C(=O)C(C)=C(CCC(C)CC(=O)O)[C@@]2(C)CCCC(C)(C)C12 (stereo not given in full) | inconclusive [cytotoxic, partial curve, poor fit] | 
31 | C/C=C(\C)C(=O)O[C@H]1C=CC(=O)O[C@H]1/C=C/[C@H](O)[C@@H](C)O | active: 7.31 µM | 
32 | CC1=CC(=O)C(C(C)C)=CC1=O | inconclusive [cytotoxic, partial curve, poor fit] | 
33 | CN1[C@@H]2CC[C@H]1CC(OC(=O)C(CO)c1ccccc1)C2 (stereo not given in full) | inactive | 
34 | NCc1c[nH]c(=S)n1[C@@H]1CCc2c(F)cc(F)cc2C1 | inconclusive [cytotoxic, single point] | 
35 | NS(=O)(=O)c1cc(C(=O)O)cc(N2CCCC2)c1Oc1ccccc1 | inconclusive [cytotoxic, partial curve, poor fit] | 
36 | O=C(c1ccccc1)c1c(O)cc(O)cc1O[C@@H]1O[C@H](CO)[C@@H](O)[C@H](O)[C@H]1O | inactive | 
37 | CC(=O)OC[C@]12[C@H](OC(C)=O)C(=O)[C@@H]3[C@@H](OC(C)=O)[C@@]14O[C@@]3(C)COC(=O)c1cccnc1[C@@H](C)[C@H](C)C(=O)O[C@@H]([C@H](O)[C@@H]2OC(C)=O)[C@]4(C)O | inactive | 
38 | CCC(C)/C=C(C)/C=C/C1=CC2=C(Cl)C(=O)C(C)(OC(C)=O)C(=O)C2=CN1CCCCC(N)C(=O)O (stereo not given) | inactive | 
39 | O=C(O)COCCN1CCN([C@H](c2ccccc2)c2ccc(Cl)cc2)CC1 | inactive | 
40 | c1ccc(-c2csc(N3CCOCC3)n2)cc1 | inconclusive [cytotoxic, partial curve, poor fit] | 

— PubChem BioAssay (NCATS)
